One test deals with HSkMC. The experiment in a line: cytotoxicity call (relative viability < 0.9). Particulars: 10 µM.
For a further test, the system named is HepG2. The test can be described thus: cytotoxicity call (relative viability < 0.9). The note with it: 10 µM.
The test system of another test is S. aureus RN4220. The experiment in a line: growth inhibition call (relative growth <= 0.2). The note with it: 50 µM.

This is one part of the list.

The record followed here is the antibiotic and cytotoxicity screens of Wong et al. (2023).

With `C[C@@H]1CN([C@@H](C)CO)C(=O)c2c(c3ccccc3n2C)-c2ccccc2CO[C@H]1CN(C)Cc1ccc(-c2ccccc2)cc1`, the cytotoxicity call in the test with HSkMC and with HepG2 was “inactive” in each case. Further, the growth inhibition call with S. aureus RN4220 was “inactive”.

`O=C(O)C[C@@H]1CC[C@H]2[C@@H](COC[C@H](O)CN2S(=O)(=O)c2ccc(F)cc2)O1`: the cytotoxicity call with HSkMC and with HepG2 was “inactive” each time. Further, in the test with S. aureus RN4220, the growth inhibition call is “inactive”.

As to `CCC(=O)N1C[C@]2(CN(C2)S(=O)(=O)C)c2c(n(c3cc(ccc23)OC)C)[C@H]1CO`, the cytotoxicity call with HSkMC and in the test with HepG2 was “inactive” in each case. The growth inhibition call with S. aureus RN4220 is “inactive”.

Turning to `COCC(=O)Nc1ccc2c(c1)C(=O)N(C)[C@H]1CC[C@@H](CC(=O)NCc3ccccc3Cl)O[C@@H]1CO2`, the cytotoxicity call in the test on HSkMC and in the test with HepG2 was “inactive” in each case. Further, the growth inhibition call in the test on S. aureus RN4220 was “inactive”.

`COC(=O)c1c(CC[C@@H](CO)NC(=O)N[C@H](Cn2cc(-c3ccccc3C)nn2)C(C)C)oc(C(C)=O)c1C(=O)OC`: the cytotoxicity call in the test with HSkMC and in the test with HepG2 was “inactive” throughout. Also, in the test with S. aureus RN4220, the growth inhibition call is “inactive”.

Consider `CCCNC(=O)N1C[C@H](C)[C@@H](OC)CN(C)C(=O)c2cc(NS(=O)(=O)CC(F)(F)F)ccc2OC[C@H]1C`, for which the cytotoxicity call in the test with HSkMC and in the test with HepG2 was “inactive” in each case. The growth inhibition call in the test on S. aureus RN4220 is “inactive”.

Regarding `COc1ccc(S(=O)(=O)N(C)C[C@H]2OCCCC[C@@H](C)Oc3ccc(NC(=O)Nc4cccc5ccccc45)cc3C(=O)N([C@H](C)CO)C[C@H]2C)cc1`, the cytotoxicity call with HSkMC and with HepG2 was “inactive” in each case. Moreover, the growth inhibition call in the test with S. aureus RN4220 was “inactive”.

Turning to `C/C=C/c1cccc(-c2nc(C(=O)NCc3cccc(OC)c3)cc3c2[C@@H](CCO)N([S@](=O)C(C)(C)C)C3)c1`, the cytotoxicity call in the test on HSkMC and in the test with HepG2 was “inactive” in each case. Further, the growth inhibition call with S. aureus RN4220 is “inactive”.

Regarding `C[C@H]1CN([C@@H](C)CO)C(=O)c2cc(NS(=O)(=O)c3ccc(F)cc3)ccc2O[C@H]1CN(C)Cc1ccc(Cl)c(Cl)c1`, the cytotoxicity call in the test with HSkMC and in the test on HepG2 was “inactive” throughout. The growth inhibition call with S. aureus RN4220 is “inactive”.

`C[C@H](CO)N1C[C@H](C)[C@@H](CN(C)Cc2ccc(-c3ccccc3)cc2)Oc2c(NS(=O)(=O)c3ccc(Cl)cc3)cccc2C1=O`: the cytotoxicity call with HSkMC and in the test on HepG2 was “inactive” throughout. The growth inhibition call in the test with S. aureus RN4220 was “inactive”.

Take `Cc1ccc(S(=O)(=O)Nc2ccc3c(c2)CC(=O)N([C@@H](C)CO)C[C@@H](C)[C@H](CN(C)S(=O)(=O)c2cccs2)O3)cc1`: the cytotoxicity call with HSkMC and with HepG2 was “inactive” each time. For the same molecule, in the test with S. aureus RN4220, the growth inhibition call was “inactive”.

In the case of `C[C@@H]1CCCCO[C@@H](CN(C)S(=O)(=O)c2ccccc2)[C@@H](C)CN([C@H](C)CO)C(=O)c2cc(NC(=O)CCCCCC(=O)Nc3ccccc3N)ccc2O1`, the cytotoxicity call in the test on HSkMC and with HepG2 was “inactive” throughout. Besides, the growth inhibition call in the test on S. aureus RN4220 is “inactive”.

Consider `C[C@H]1CCCCO[C@H](CN(C)C(=O)Nc2ccc(F)cc2)[C@@H](C)CN([C@@H](C)CO)C(=O)c2cc(NC(=O)NC3CCCCC3)ccc2O1`, for which the cytotoxicity call with HSkMC and with HepG2 was “inactive” in each case. In the test with S. aureus RN4220, the growth inhibition call is “inactive”.

Turning to `Cc1[nH]c(=O)[nH]c(=O)c1/C=C/C(=O)O`, the cytotoxicity call with HSkMC and in the test on HepG2 was “inactive” throughout. Further, the growth inhibition call in the test on S. aureus RN4220 was “inactive”.

In the case of `C[C@@H]1CCCCO[C@@H](CN(C)S(=O)(=O)c2ccc(F)cc2)[C@H](C)CN([C@H](C)CO)C(=O)c2cc(NC(=O)Nc3ccc4c(c3)OCO4)ccc2O1`, the cytotoxicity call in the test with HSkMC and in the test with HepG2 was “inactive” in each case. In the test on S. aureus RN4220, the growth inhibition call is “inactive”.

As to `Cc1noc(C)c1NC(=O)Nc1ccc2c(c1)C(=O)N([C@@H](C)CO)C[C@H](C)[C@H](CN(C)Cc1ccc(C(F)(F)F)cc1)OCCCC[C@@H](C)O2`, the cytotoxicity call in the test with HSkMC and in the test on HepG2 was “inactive” each time. The growth inhibition call in the test with S. aureus RN4220 is “inactive”.

As for `Cc1cc(C(=O)Nc2cccc3c2O[C@@H](CN(C)S(=O)(=O)c2cccs2)[C@@H](C)CN([C@@H](C)CO)C3=O)n(C)n1`, the cytotoxicity call in the test on HSkMC and in the test with HepG2 was “inactive” in each case. In the test on S. aureus RN4220, the growth inhibition call is “inactive”.

Turning to `COc1ccc(NC(=O)Nc2ccc3c(c2)C(=O)N([C@@H](C)CO)C[C@@H](C)[C@H](CN(C)C(=O)Nc2ccc(OC)cc2)OCCCC[C@@H](C)O3)cc1`, the cytotoxicity call in the test on HSkMC and in the test with HepG2 was “inactive” throughout. Moreover, the growth inhibition call with S. aureus RN4220 is “inactive”.

`COc1ccc2c3c(n(c2c1)C)[C@@H](CO)N(C[C@]13CN(C1)C(=O)Cc1ccccc1)C(=O)c1ccccn1`: the cytotoxicity call in the test on HSkMC and in the test on HepG2 was “inactive” throughout. For the same molecule, the growth inhibition call with S. aureus RN4220 was “inactive”.

Take `C[C@H]1CN([C@@H](C)CO)C(=O)c2cccc(NS(C)(=O)=O)c2O[C@H]1CN(C)S(=O)(=O)c1ccc(Cl)cc1`: the cytotoxicity call with HSkMC and with HepG2 was “inactive” each time. The growth inhibition call in the test on S. aureus RN4220 was “inactive”.

Regarding `CCCCCCCCC#CCCCCCCCC(=O)O`, the cytotoxicity call in the test on HSkMC and in the test on HepG2 was “inactive” in each case. Also, the growth inhibition call with S. aureus RN4220 is “inactive”.

Regarding `CC1(C)OC2CC3C4CCC5=CC(=O)C=CC5(C)C4(F)C(O)CC3(C)C2(C(=O)CO)O1` (centres undefined), the cytotoxicity call in the test on HSkMC and in the test on HepG2 was “inactive” throughout. Also, in the test with S. aureus RN4220, the growth inhibition call is “inactive”.

Turning to `Cc1c2c(nn1C)CSCc1cc(n(C)n1)CSc1cc(c3ccccc3c1)OCCCc1c(C(=O)O)n(C)c3c-2c(Cl)ccc13`, the cytotoxicity call with HSkMC and in the test with HepG2 was “inactive” in each case. The growth inhibition call in the test on S. aureus RN4220 is “active”.

Turning to `C[C@@H](N)C12CC3CC(CC(C3)C1)C2`, the cytotoxicity call with HSkMC and with HepG2 was “inactive” each time. In addition, in the test on S. aureus RN4220, the growth inhibition call is “inactive”.

As to `COc1ccc(S(=O)(=O)N(C)C[C@@H]2Oc3ccc(NC(=O)CCN4CCOCC4)cc3C(=O)N([C@H](C)CO)C[C@H]2C)cc1`, the cytotoxicity call in the test with HSkMC and in the test on HepG2 was “inactive” throughout. The growth inhibition call in the test on S. aureus RN4220 was “inactive”.

Consider `COc1ccc2cc1Oc1ccc(cc1)CC1c3cc(c(OC)cc3CCN1C)Oc1c(OC)c(OC)cc3c1C(C2)N(C)CC3` (centres undefined), for which the cytotoxicity call in the test on HSkMC and in the test with HepG2 was “inactive” throughout. The growth inhibition call in the test on S. aureus RN4220 was “inactive”.

Turning to `C[C@@H]1CN([C@@H](C)CO)C(=O)c2cc(NC(=O)Nc3ccc(C(F)(F)F)cc3)ccc2O[C@@H](C)CCCCO[C@H]1CN(C)Cc1ccc(C(F)(F)F)cc1`, the cytotoxicity call in the test on HSkMC (human skeletal muscle cells) was “inactive”. In addition, the cytotoxicity call with HepG2 is “active”. Besides, in the test on S. aureus RN4220, the growth inhibition call is “inactive”.

In the case of `O=C1O[C@H](c2ccccc2)[C@H](c2ccccc2)N2[C@H]1[C@@H](C(=O)N1CCN(c3ncccn3)CC1)[C@]1(C(=O)Nc3ccc(C#CC4(O)CCCCCC4)cc31)[C@H]2c1ccc(O)cc1`, the cytotoxicity call in the test with HSkMC and in the test with HepG2 was “inactive” in each case. In addition, the growth inhibition call in the test on S. aureus RN4220 was “inactive”.
